These are yes or no findings as the source states them, for the method shown. For some assays here: Binding seen in cells or lysates may run through a third protein. Some results given as binding are weak or reduced against the parent protein; the word gives no strength. Tags and fused reporters may be left off the sequences shown.
Legend:
[1] = molecular target: T1, AP2C1 (protein phosphatase 2C), two-hybrid fusion (Arabidopsis thaliana) (UniProt O80871); assay: two-hybrid; yeast strain AH109 co-transformed with AD (pGAD.GH) and BD (pGBT9.BS) fusions; growth on SC-LWH and on SC-LWH with 0.5 and 3.0 mM 3-AT
T1 sequence: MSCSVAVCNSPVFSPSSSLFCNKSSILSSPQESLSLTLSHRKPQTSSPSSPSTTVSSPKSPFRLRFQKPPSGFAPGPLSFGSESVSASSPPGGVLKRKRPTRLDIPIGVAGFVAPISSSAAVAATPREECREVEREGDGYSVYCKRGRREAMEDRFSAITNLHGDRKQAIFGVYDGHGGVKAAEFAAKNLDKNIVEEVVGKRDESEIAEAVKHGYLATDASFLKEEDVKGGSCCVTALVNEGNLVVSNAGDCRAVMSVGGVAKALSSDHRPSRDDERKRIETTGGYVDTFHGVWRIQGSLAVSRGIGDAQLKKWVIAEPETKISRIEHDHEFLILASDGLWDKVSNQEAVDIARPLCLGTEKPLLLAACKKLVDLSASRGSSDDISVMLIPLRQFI

[2] = molecular target: T2, GST-CIPK9 (Arabidopsis thaliana) (UniProt Q9MAM1); assay: pull-down; Glutathione-sepharose 4B-bound GST-fused protein (approximately 1 ug) incubated with bacterial soluble lysate expressing the 6X-His fusion protein for 4 h at 4 °C; washed six times with phosphate buffer saline; anti-His immunoblot; only the target purified
T2 sequence: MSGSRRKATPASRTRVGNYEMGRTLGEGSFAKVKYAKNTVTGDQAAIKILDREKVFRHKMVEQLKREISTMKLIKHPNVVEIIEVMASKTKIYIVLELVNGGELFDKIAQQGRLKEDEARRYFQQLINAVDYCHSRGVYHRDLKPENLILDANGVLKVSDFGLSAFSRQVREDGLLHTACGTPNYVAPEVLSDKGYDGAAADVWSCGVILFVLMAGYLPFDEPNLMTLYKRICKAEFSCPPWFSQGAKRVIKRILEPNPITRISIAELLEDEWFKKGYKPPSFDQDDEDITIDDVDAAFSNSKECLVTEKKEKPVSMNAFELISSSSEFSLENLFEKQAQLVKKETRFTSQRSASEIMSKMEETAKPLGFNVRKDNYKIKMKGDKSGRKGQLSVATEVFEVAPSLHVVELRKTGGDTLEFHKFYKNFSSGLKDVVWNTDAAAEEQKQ

[3] = molecular target: T3, YFP-CIPK9 (Arabidopsis thaliana) (UniProt Q9MAM1); assay: FRET or BRET; FRET by acceptor bleaching, CFP and YFP fusions co-expressed in N. benthamiana cells, confocal microscopy; at least seven cells
T3 sequence: T2 sequence

[4] = molecular target: T4, CIPK9 fused to the N-terminal fragment of YFP (Arabidopsis thaliana) (UniProt Q9MAM1); assay: split reporter; BiFC with YFPc and YFPn fusions (pSPYCE-35S^GW, pSPYNE-35S^GW) co-infiltrated in N. benthamiana cells, confocal microscopy
T4 sequence: T2 sequence

[5] = molecular target: T5, CBL-interacting protein kinase 9 (CIPK9), two-hybrid fusion (Arabidopsis thaliana) (UniProt Q9MAM1); assay: two-hybrid; yeast strain AH109 co-transformed with AD (pGAD.GH) and BD (pGBT9.BS) fusions; growth on SC-LWH and on SC-LWH with 0.5 and 3.0 mM 3-AT
T5 sequence: T2 sequence

B1: CBL-interacting protein kinase 9 (CIPK9), two-hybrid fusion (enzyme, UniProt Q9MAM1 1-447)
chain: T2 sequence
With B1 the binding [1] was “binds”.

B2: His-AP2C1 (enzyme, UniProt O80871 1-396)
chain: T1 sequence
In the case of B2, the binding [2] is reported as “binds”.

B3: AP2C1 fused to cyan fluorescent protein (enzyme, UniProt O80871 1-396)
chain: T1 sequence
For B3, the binding [3] was “binds”.

B4: AP2C1 fused to the C-terminal fragment of YFP (enzyme, UniProt O80871 1-396)
chain: T1 sequence
In the case of B4, the binding [4] is reported as “binds”.

B5: AIP1 (PP2C, homolog of AP2C1), two-hybrid fusion (enzyme, UniProt Q9LNW3 1-442)
chain: MADICYEDETSACESRPLWSSRKWRIGVQRFRMSPSEMNPTASTTEEEDKSEGIYNKRNKQEEYDFMNCASSSPSQSSPEEESVSLEDSDVSISDGNSSVNDVAVIPSKKTVKETDLRPRYGVASVCGRRRDMEDAVALHPSFVRKQTEFSRTRWHYFGVYDGHGCSHVAARCKERLHELVQEEALSDKKEEWKKMMERSFTRMDKEVVRWGETVMSANCRCELQTPDCDAVGSTAVVSVITPEKIIVANCGDSRAVLCRNGKAVPLSTDHKPDRPDELDRIQEAGGRVIYWDGARVLGVLAMSRAIGDNYLKPYVTSEPEVTVTDRTEEDEFLILATDGLWDVVTNEAACTMVRMCLNRKSGRGRRRGETQTPGRRSEEEGKEEEEKVVGSRKNGKRGEITDKACTEASVLLTKLALAKHSSDNVSVVVIDLRRRRKRHVA
B5 was tested, and the binding [5] was “no binding”.

From PMC6054203
